This is an account of results in a collection of fitness landscapes (doi:10.1126/science.1257360).

The chains are these.
B1: PhoQ; a variant is named by its letters at X, in order, P23837 (parent)
chain: MKKLLRLFFPLSLRVRFLLATAAVVLVLSLAYGMVALIGYSVSFDKTTFRLLRGESNLFYTLAKWENNKLHVELPENIDKQSPTMTLIYDENGQLLWAQRDVPWLMKMIQPDWLKSNGFHEIEADVNDTSLLLSGDHSIQQQLQEVREDDDDAEMTHSVAVNVYPATSRMPKLTIVVVDTIPVELKSSYMVWSWFIYVLSANLLLVIPLLWVAAWWSLRPIEALAKEVRELEEHNRELLNPATTRELTSLVRNLNRLLKSERERYDKYRTTLTDLTHSLKTPLXXLQXXLRSLRSEKMSVSDAEPVMLEQISRISQQIGYYLHRASMRGGTLLSRELHPVAPLLDNLTSALNKVYQRKGVNISLDISPEISFVGEQNDFVEVMGNVLDNACKYCLEFVEISARQTDEHLYIVVEDDGPGIPLSKREVIFDRGQRVDTLRPGQGVGLAVAREITEQYEGKIVAGESMLGGARMEVIFGRQHSAPKDE

The list shows a part of the results. Some results are limits rather than exact numbers.

This assay covers variants of B1. As to the kind of experiment: enrichment ratio after two sorts for PhoP signalling (ratio (wild type AVST 3.29)); higher = more functional. Conditions: with PhoP (E. coli).
Regarding VFSV, the enrichment ratio was no more than 0.25.
NTSP: the enrichment ratio is no more than 0.25.
Turning to WFND, the enrichment ratio was no more than 0.25.
Take FAKA: the enrichment ratio is no more than 0.25.
As for KFVQ, the enrichment ratio was no more than 0.25.
On to NQRV, for which the enrichment ratio is no more than 0.25.
For RDKM, the enrichment ratio is no more than 0.25.
Regarding LSNQ, the enrichment ratio was no more than 0.25.
For the variant LWTV, the enrichment ratio was no more than 0.25.
With RNAP, the enrichment ratio was no more than 0.25.
In the case of CTNF, the enrichment ratio is no more than 0.25.
Turning to WYSY, the enrichment ratio is no more than 0.25.
As to GPCN, the enrichment ratio was no more than 0.25.
Consider NEPI, for which the enrichment ratio was no more than 0.25.
As for NDVR, the figure is no more than 0.25; as for FFSD, no more than 0.25.
WHKP: the enrichment ratio is no more than 0.25.
The result for NEGT reads no more than 0.25; that for QHEW, no more than 0.25.
IDGK: the enrichment ratio was no more than 0.25.
Regarding HLFH, the enrichment ratio is no more than 0.25.
The result for DWPK reads no more than 0.25.
Turning to GQLC, the enrichment ratio is 2.58.
As to LWTF, the enrichment ratio is no more than 0.25.
As for YPAC, the figure is no more than 0.25; as for LNFM, no more than 0.25.
The result for KFFD reads no more than 0.25.
In the case of IERT, the enrichment ratio is no more than 0.25.
Consider HVTF, for which the enrichment ratio is no more than 0.25.
With MGSR, the enrichment ratio was no more than 0.25.
Consider TMGF, for which the enrichment ratio was found to be 13.3.
The result for STGN reads 6.31.
As for VWIS, the figure is no more than 0.25; as for NMHC, no more than 0.25.
The result for NHPM reads no more than 0.25; that for YKPN, no more than 0.25.
For the variant SFCD, the enrichment ratio is no more than 0.25.
Turning to PRDT, the enrichment ratio was no more than 0.25.
In the case of YWAV, the enrichment ratio was no more than 0.25.
As for DQSF, the enrichment ratio was no more than 0.25.
As to FDHT, the enrichment ratio is no more than 0.25.
In the case of NWGP, the enrichment ratio was no more than 0.25.
On to IENS, for which the enrichment ratio was no more than 0.25.
With SSIK, the enrichment ratio was no more than 0.25.
In the case of FTSY, the enrichment ratio is no more than 0.25.
As for QQLE, the enrichment ratio is no more than 0.25.
As to SKNA, the enrichment ratio is no more than 0.25.
IWID: the enrichment ratio was no more than 0.25.
As for HEGD, the enrichment ratio is no more than 0.25.
For KQQG, the enrichment ratio is no more than 0.25.
Turning to VICG, the enrichment ratio was no more than 0.25.
In the case of KQKV, the enrichment ratio is no more than 0.25.
The result for VPER reads no more than 0.25.
As for IASM, the enrichment ratio came out at 0.484.
As for GWLQ, the figure is no more than 0.25; as for AQWF, no more than 0.25.
DALT: the enrichment ratio is no more than 0.25.
With HKRH, the enrichment ratio is no more than 0.25.
As for EPYC, the figure is no more than 0.25; as for WPHR, no more than 0.25.
As to YENV, the enrichment ratio is no more than 0.25.
Consider IVSW, for which the enrichment ratio was no more than 0.25.
For the variant IYCF, the enrichment ratio was no more than 0.25.
In the case of LMGH, the enrichment ratio was no more than 0.25.
In the case of YYFG, the enrichment ratio was no more than 0.25.
For VSMN, the enrichment ratio was no more than 0.25.
The result for HQSK reads 0.452.
As for VEAC, the figure is 0.99.
In the case of QTMI, the enrichment ratio is no more than 0.25.
The result for FRMH reads no more than 0.25; that for YARP, no more than 0.25; that for IQCG, no more than 0.25.
The result for GSYT reads no more than 0.25; that for YQCS, no more than 0.25.
On to QKYM, for which the enrichment ratio is no more than 0.25.
As to HMGW, the enrichment ratio is no more than 0.25.
The result for RPCP reads no more than 0.25; that for KEDL, no more than 0.25.
As to NAPP, the enrichment ratio is no more than 0.25.
Take LHFV: the enrichment ratio was no more than 0.25.
LPWG: the enrichment ratio is no more than 0.25.
For IWRG, the enrichment ratio is no more than 0.25.
As for SFGI, the figure is no more than 0.25; as for HNMC, no more than 0.25; as for HDMF, no more than 0.25.
As to IEFI, the enrichment ratio is no more than 0.25.
On to VHLQ, for which the enrichment ratio was no more than 0.25.
Consider FHAM, for which the enrichment ratio was no more than 0.25.
Regarding WNPL, the enrichment ratio was no more than 0.25.
The result for VMCD reads no more than 0.25; that for TTKM, no more than 0.25.
As for ELAH, the figure is no more than 0.25.
With QDYD, the enrichment ratio was no more than 0.25.
Take KEYM: the enrichment ratio was no more than 0.25.
Consider ANKE, for which the enrichment ratio was no more than 0.25.
For VMKG, the enrichment ratio is no more than 0.25.
The result for YGVM reads 1.53.
For ALAD, the enrichment ratio is no more than 0.25.
On to QLGI, for which the enrichment ratio is no more than 0.25.
For the variant HDIY, the enrichment ratio is no more than 0.25.
Consider SNDP, for which the enrichment ratio was no more than 0.25.
As for PTVP, the figure is no more than 0.25; as for GNPC, no more than 0.25; as for YAWP, no more than 0.25.
For the variant VALI, the enrichment ratio worked out at 10.8.
Regarding HAHW, the enrichment ratio is no more than 0.25.
The result for VDFR reads no more than 0.25; that for GNIL, 9.55.
On to DCIM, for which the enrichment ratio was no more than 0.25.
For YTGN, the enrichment ratio was no more than 0.25.
On to PIWM, for which the enrichment ratio is no more than 0.25.
The result for PAWM reads no more than 0.25; that for PYPR, no more than 0.25.
For KWSH, the enrichment ratio is no more than 0.25.
For TDKT, the enrichment ratio was no more than 0.25.
On to QKQV, for which the enrichment ratio is no more than 0.25.
Take YWPG: the enrichment ratio is no more than 0.25.
On to DTTF, for which the enrichment ratio was no more than 0.25.
Turning to IEDT, the enrichment ratio was no more than 0.25.
Consider ENFI, for which the enrichment ratio is no more than 0.25.
For the variant KVKL, the enrichment ratio is no more than 0.25.
The result for TKMR reads no more than 0.25.
As for AKTM, the figure is 0.775; as for DRGA, no more than 0.25; as for EYVG, no more than 0.25.
Take IGIA: the enrichment ratio is no more than 0.25.
As for QFPA, the figure is no more than 0.25; as for MNEP, no more than 0.25; as for PACT, no more than 0.25.
As for VKPW, the figure is no more than 0.25; as for IGIF, no more than 0.25.
As to GGLH, the enrichment ratio stood at 2.42.
Regarding KTPA, the enrichment ratio was no more than 0.25.
As for QERW, the figure is no more than 0.25.
Regarding RCHW, the enrichment ratio was no more than 0.25.
As for EADH, the enrichment ratio is no more than 0.25.
As for IRLG, the enrichment ratio was no more than 0.25.
As to DDPS, the enrichment ratio is no more than 0.25.
For MEEE, the enrichment ratio is no more than 0.25.
Take TWRV: the enrichment ratio is no more than 0.25.
Take KEFA: the enrichment ratio was no more than 0.25.
As to DMPK, the enrichment ratio was no more than 0.25.
As to NNLE, the enrichment ratio is no more than 0.25.
Turning to PKLP, the enrichment ratio amounted to 0.31.
As for TAVV, the figure is 1.05; as for WSFV, no more than 0.25.
Take YERI: the enrichment ratio was no more than 0.25.
Regarding KDEG, the enrichment ratio was no more than 0.25.
On to SSPY, for which the enrichment ratio was no more than 0.25.
As for HIST, the figure is no more than 0.25; as for GMTR, no more than 0.25.
Consider EKTY, for which the enrichment ratio is no more than 0.25.
For WEFC, the enrichment ratio is no more than 0.25.
In the case of SLGY, the enrichment ratio worked out at 1.84.
As for AFIV, the figure is no more than 0.25; as for DYWR, no more than 0.25; as for ATCF, 10.
As for FETM, the figure is 3.22; as for PASL, no more than 0.25.
Turning to EPDN, the enrichment ratio is no more than 0.25.
As to INEE, the enrichment ratio is no more than 0.25.
Consider RELK, for which the enrichment ratio is no more than 0.25.
As to TIFT, the enrichment ratio is no more than 0.25.
As for KMTI, the enrichment ratio was no more than 0.25.
With SYCT, the enrichment ratio was no more than 0.25.
For the variant YLHC, the enrichment ratio was no more than 0.25.
As for GNNM, the enrichment ratio was no more than 0.25.
Consider QLKF, for which the enrichment ratio was no more than 0.25.
In the case of TRET, the enrichment ratio was no more than 0.25.
As for DAFI, the figure is no more than 0.25; as for ELIP, no more than 0.25; as for IKEA, no more than 0.25.
As for FQCV, the figure is no more than 0.25; as for TLYP, 1.58.
Consider HFCW, for which the enrichment ratio was no more than 0.25.
In the case of KTDP, the enrichment ratio was no more than 0.25.
Turning to DCVV, the enrichment ratio was no more than 0.25.
On to RVLD, for which the enrichment ratio was no more than 0.25.
In the case of IVDF, the enrichment ratio is no more than 0.25.
The result for KNLW reads no more than 0.25; that for HEVQ, no more than 0.25.
Regarding QMCK, the enrichment ratio was no more than 0.25.
Take GTAH: the enrichment ratio is no more than 0.25.
For ALSN, the enrichment ratio worked out at 6.57.
The result for MKWC reads no more than 0.25; that for FMRH, no more than 0.25; that for AFYA, no more than 0.25.
As for ISCW, the figure is no more than 0.25; as for KGHI, no more than 0.25.
On to APWP, for which the enrichment ratio is no more than 0.25.
As for IVYH, the figure is no more than 0.25; as for HELH, no more than 0.25; as for KFLS, no more than 0.25.
In the case of VICN, the enrichment ratio is no more than 0.25.
For the variant SKQC, the enrichment ratio is no more than 0.25.
